# Measurements published in the supplement of paper PMC11417369.
# ± gives the standard deviation of the averaged measurements. Some of the results follow.
# Tested on: PfAP2-G AP2 domain (GST-tagged)
# Assay: gcPBM binding intensity (ln(normalized median fluorescence intensity)); higher = stronger DNA binding
# Summary of the method: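 Binding of GST-tagged P. falciparum DNA-binding domains, expressed in E. coli and used at about 25 μg on average, was carried out for 1 h in 1× PBS containing 1% milk, 0.2 mg/ml BSA, 0.5% salmon testes DNA and 0.03% Triton X-100. The target was an Agilent 4 × 180k array of primer-extended double-stranded 36-bp intergenic genomic probes plus negative controls, read with Alexa488 anti-GST antibody at 488 nm. Binding intensity is the highest Masliner-normalised natural-log median intensity across replicate spots of either probe orientation.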
row,Sequence,gcPBM binding intensity (ln)
1,AACATAAAAAAAATATGTACATATATAATATATATA [XGTACX_site3764],11.2 ± 0.78
2,TTTACACGTACGTGTACACACAAAAATATGTTTTTA [CACACA_site995],11.6 ± 0.89
3,GAAAGAAATAAAGGTGGTACATAAATAAAAACTAAG [XGTACX_site4826],11.5 ± 0.77
4,AAATTCCACGGACACACACACATATAAATAAATAAA [CACACA_site4811],11.2 ± 0.86
5,TGTAGTCTGGAGAAAAGTACATAGTATCTGGTAGCT [XGTACX_site2031],11.3 ± 0.81
6,ATTTATATGGTTTGCACACATAACAACTATGGTTAT [CACACA_site3632],10.21 ± 0.042
7,AAAAAAAAAAAAAAAAGTACACAAATAGATTTATAT [XGTACX_site3727],11.6 ± 0.88
8,ATTCTATTTTTTATAAAACCATGTCATCAACATAGG [CACACA_negctrl_site237],10.2 ± 0.15
9,AAAAAAAAAGAAAAATGTACATACATAAATATATAT [XGTACX_site5664],11.1 ± 0.64
10,ATTATAAACCATAATTAACACACAAAATAAGTTACA [CACACA_site9057],10.2 ± 0.17
11,TATTTTAGTAAAGGTGGTACTTTTAAGTTCATGTAT [XGTACX_site1854],11.2 ± 0.74
12,TCCTTTCAACCATATATAATGACATGTACTCAAAAA [GTGCAC_negctrl_site417],11.5 ± 0.99
13,CATCCATATAAAATATGTACATATATATATATATAT [XGTACX_site5859],11.2 ± 0.73
14,TATATATCAAGACACACACACATATATTTATTTATA [CACACA_site7733],10.05 ± 0.035
15,GATAATTTATTTTTTCGTACACAAAATATAATATAT [XGTACX_site1470],11.3 ± 0.91
16,TGAGTTCAACAAAGACGTACAAAACCAAAAATATAA [XGTACX_site8931],11.6 ± 0.93
17,TTTTTTTTTTTTTTTTGATACATTAACCTACAATGG [GTGCAC_negctrl_site625],9.87 ± 0.41
18,TCGTGAGAAAATATTACACACATTTACTATAGTATC [CACACA_site3444],9.76 ± 0.16
19,TTTTTTAAAGATTACTCAAAAAAATAAAAAAATAAA [GTGCAC_negctrl_site222],9.93 ± 0.16
20,AAAATTTATAAAAGCACACAAAATAAAAAAAAATGA [CACACA_site1491],10.06 ± 0.078
21,TGTACGAGTCGTAGAGTGCAGTCTGGAGAAGAGTAC [GTGCAC_site9684],11 ± 0.52
22,CAATGTTAACATATTACACACATATGTATATAGAAT [CACACA_site2732],10.24 ± 0.049

row,Sequence,gcPBM binding intensity (ln)
1,CTTACGTATTAAGTGTGTCCGTAGTGTTCATAGTTC [XGTACX_site8913],10.9 ± 0.47
2,TTATAATATGTATACACACACATATATAAATATATA [CACACA_site2326],10 ± 0.22
3,TTTTGTTATATACAATAGATCAGAAGAAATGAAGTT [CACACA_negctrl_site1579],10.04 ± 0.064
4,ATATTGGAATAAATTTGTACATATATATATTATTCA [XGTACX_site916],10.9 ± 0.54
5,TATATATGTATATATTTTATAAGTATGCAAGAAAAT [TGCATGCA_negctrl_site486],10.1 ± 0.2
6,ATATATATATGTATATGTACTTATATTATTGTTTGT [XGTACX_site1466],11.2 ± 0.75
7,CTATAATTATGATGAAGTACATATGAGTTCAAAAAA [XGTACX_site3070],11.3 ± 0.87
8,AATATATGGTTTCATGATATTAAATACAATTTAATG [CACACA_negctrl_site1503],10 ± 0.15
9,TTATTATTATATTCTACATGCAGTTTGTGTAGAACA [TGCATGCA_site455],9.94 ± 0.057
10,TGAACTCAACAAAGGGTGCATAACAAAAATAGACGT,10.6 ± 0.34
11,GTAAAAGAACGGCATGCATGAAAAATATTACACATG [TGCATGCA_site143],10 ± 0.085
12,ACATAATGCTAGACACGTACGTACATCCGTGAGGTT [XGTACX_site4156],11.6 ± 0.67
13,AAAAATATAAACACCAGTACACAAACCTATAATGGA [XGTACX_site3846],11.2 ± 0.61
14,TTTCAATAATAAAAAACACACACAAAAAAAAATAAT [CACACA_site8905],10.21 ± 0.049
15,AAAGTAAATTTAAGCACACACAACGAATTTTTATAC [CACACA_site1959],10.2 ± 0.035
16,GCATATAAAATAAATCGTACATGTAAAACATAATTA [XGTACX_site7077],11 ± 0.69
17,TTTCTTTTTTCTGTTATTATTATAAAACGATATTTA [TGCATGCA_negctrl_site167],9.76 ± 0.042
18,TACACATACCCATACACACGCATAGAAACATACGAA [CACACA_site5212],10.3 ± 0.35
19,TATTTTTATTTTAATTGTACTTTTTAATTAATAATA [XGTACX_site8302],11.4 ± 0.93
20,GATAGAAAAAAATAATGTACACACACATATATGTTT [XGTACX_site392],11.2 ± 0.71
21,GGCAGCAATTTAGTTACACACATATATAGGTATACA [CACACA_site76],10.1 ± 0.099
22,TGTGTCAAATAATTAATGTCATATATATTTTGTATA [CACACA_negctrl_site1479],9.675 ± 0.078
